# Source: the supplement of paper PMC10126150
# Values marked as one replicate rest on one cluster of the flow cell; about a third of the high ones do not repeat.
# Tested on: ATP
# Assay: switch fluorescence ratio, 500 uM ATP over buffer (Cy3 cluster intensity, sum of 5 cycles each) (fold (ratio)); higher = stronger signal-on switching upon ATP binding; sequences stand for … in TCGTCGGCAGCGTCAGATGTGTATAAGAGACAGTTTTTTTTTTTTTTTTTTTTTTTTT…TC
# Details: aptamer strand: ATP DNA aptamer (quencher-CACCTGGGGGAGTATTGCGGAGGAAGG + anchor), 100 nM annealed; ATP concentration: 500 uM; one replicate
# Method in brief: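 After annealing to 100 nM quencher-labelled ATP aptamer, Cy3-labelled switching-strand clusters on a modified Illumina MiSeq flow-cell were imaged in selection buffer. A second image followed after 15 min with 500 uM ATP at 22 °C, and five such buffer/ATP cycles were done, each separated by NaOH stripping and re-annealing. The fluorescence ratio, averaged per switch-domain sequence, is summed target-cycle over summed buffer-cycle Cy3 intensity per cluster, with clusters outside 100-1000 RFU excluded.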
# 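Note: ATP exposure 15 min at 22 °C before imaging.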
row,Sequence,switch fluorescence ratio
1,AGCTCCTTGA,0.987
2,AGCTCTACAC,1.06
3,AGCTCTCCAA,1.1
4,AGCTGCCCTG,1.01
5,AGCTGGACAG,1.02
6,AGCTGTTAGA,1.02
7,AGCTTAATGT,0.944
8,AGCTTAGTAT,1.01
9,AGCTTATGG,0.997
10,AGCTTGCAAA,1.04
11,AGCTTGCGTC,0.997
12,AGCTTGGTTT,0.945
13,AGCTTTACAA,1.01
14,AGCTTTACTT,1.01
15,AGCTTTATT,1.01
16,AGCTTTCATC,1.04
17,AGCTTTGGAC,1.01
18,AGCTTTTTG,1.05
19,AGGAAATCGC,0.993
20,AGGAACGTCC,1.06
21,AGGAATGTCG,1.47
22,AGGAATTGT,0.998
23,AGGAATTGTT,0.937
24,AGGAATTTAC,1.07
25,AGGACCGATT,0.998
26,AGGACCTCTT,0.95

row,Sequence,switch fluorescence ratio
1,AGGACGGGGC,1.02
2,AGGAGATAAT,0.992
3,AGGAGCGCCC,0.965
4,AGGAGCGTTT,1.01
5,AGGAGGGAAG,0.93
6,AGGAGTAACT,1
7,AGGAGTCAAT,1.13
8,AGGATAAATC,1
9,AGGATACTGT,1.01
10,AGGATAGTTC,1.01
11,AGGATATATA,1.02
12,AGGATATCAT,0.98
13,AGGATATCT,0.997
14,AGGATCAGCC,1.05
15,AGGATCGGGC,0.95
16,AGGATCTGTA,0.916
17,AGGATGGCGG,0.963
18,AGGATTACTA,0.993
19,AGGATTCGCT,0.996
20,AGGATTGCCT,0.965
21,AGGATTTAA,1.03
22,AGGATTTAAT,0.966
23,AGGATTTGAT,0.995
24,AGGCAAATTC,1.08
25,AGGCAACTGC,1.08
26,AGGCACACCG,1.06

row,Sequence,switch fluorescence ratio
1,AGGCACGAGC,0.995
2,AGGCACGTTC,1.05
3,AGGCAGATAT,0.982
4,AGGCAGCGAG,0.972
5,AGGCAGGCGA,1.04
6,AGGCAGGGGT,0.966
7,AGGCATAGAC,1.1
8,AGGCCAATCA,0.982
9,AGGCCCTATA,0.974
10,AGGCCGAACA,1
11,AGGCCGGCAT,0.987
12,AGGCCGTCAC,0.998
13,AGGCCTGAGT,1.04
14,AGGCGACAGC,0.955
15,AGGCGACCAA,1.06
16,AGGCGAGCAG,0.997
17,AGGCGAGTGG,0.918
18,AGGCGCACTT,0.952
19,AGGCGCCTTG,1
20,AGGCGGCGCA,0.967
21,AGGCGGCTTA,0.974
22,AGGCGGCTTT,1.03
23,AGGCGTAGGG,0.984
24,AGGCGTATGG,0.976
25,AGGCGTTTTT,0.99
26,AGGCTACCTT,1.08

row,Sequence,switch fluorescence ratio
1,AGGCTATCTA,0.967
2,AGGCTCCTAA,0.98
3,AGGCTCGGCA,0.978
4,AGGCTGCCGG,1
5,AGGCTGGCTG,0.976
6,AGGCTTTTCC,1.02
7,AGGGACAACA,1.08
8,AGGGACTAG,1.03
9,AGGGAGACGA,1.07
10,AGGGAGAGCT,1.05
11,AGGGAGAGTG,0.96
12,AGGGAGGTCA,1
13,AGGGAGTGCG,0.976
14,AGGGAGTTGA,1.02
15,AGGGATCAGG,0.972
16,AGGGATTCGT,1
17,AGGGCACTCC,1.65
18,AGGGCCAAA,0.976
19,AGGGCCATCA,0.975
20,AGGGCCCCAC,0.993
21,AGGGCCGTGT,0.985
22,AGGGCGGCAA,0.999
23,AGGGCTATAA,1.24
24,AGGGGAACCA,0.988
25,AGGGGCAAGC,1.06
26,AGGGGCAGAA,0.995

row,Sequence,switch fluorescence ratio
1,AGGGGCGTAT,1.03
2,AGGGGGCGGA,0.937
3,AGGGGGTAG,0.991
4,AGGGGTCAAA,0.987
5,AGGGGTGGCT,1.03
6,AGGGGTTG,0.966
7,AGGGTAGCGC,1
8,AGGGTCCTT,1.01
9,AGGGTCGCTT,1.01
10,AGGGTGAAGT,1.05
11,AGGGTGGTAC,1.01
12,AGGGTGGTTA,1.02
13,AGGGTTACCT,1.05
14,AGGGTTGATT,1.03
15,AGGGTTTTGC,0.977
16,AGGTAAACAG,0.971
17,AGGTAGGCTT,0.957
18,AGGTATAAG,1
19,AGGTATACTG,0.981
20,AGGTATAGTC,1.04
21,AGGTATCGAC,0.965
22,AGGTATGGGA,1.01
23,AGGTATGGTG,1.06
24,AGGTATTAGA,1.03
25,AGGTATTTTA,0.992
26,AGGTCAATCC,1.01

row,Sequence,switch fluorescence ratio
1,AGGTCACAGC,1.03
2,AGGTCAGAC,0.984
3,AGGTCAGACT,1
4,AGGTCAGTGA,0.993
5,AGGTCATCAC,1.02
6,AGGTCCATTG,0.985
7,AGGTCGAAAT,0.995
8,AGGTCGGTAA,0.994
9,AGGTCGTAAG,1.02
10,AGGTGCGAGA,1.01
11,AGGTGCTCAG,1.08
12,AGGTGGCCGC,0.989
13,AGGTGGTGTT,0.958
14,AGGTGGTTCT,0.954
15,AGGTGTACTA,1.05
16,AGGTGTCGCA,1
17,AGGTGTTGG,1.03
18,AGGTTACAGT,1.06
19,AGGTTATTAC,1.05
20,AGGTTCAACA,1.02
21,AGGTTCGGC,1.07
22,AGGTTCGGGA,0.989
23,AGGTTGCGG,0.977
24,AGGTTGGGCC,1.01
25,AGGTTGGTAT,1
26,AGTAACCCTT,1.11

row,Sequence,switch fluorescence ratio
1,AGTAAGAGTG,1
2,AGTAAGTCTA,0.988
3,AGTAAGTTT,1.07
4,AGTAATCGTG,0.967
5,AGTAATCTGG,0.981
6,AGTAATGGGC,1.05
7,AGTAATTCAG,1
8,AGTACAGTGG,0.988
9,AGTACATATG,1.12
10,AGTACCGAGT,1.05
11,AGTACGCCTA,1.01
12,AGTACTGTAA,1.12
13,AGTAGACGGG,0.977
14,AGTAGATCAA,1.05
15,AGTAGATTAC,1.01
16,AGTAGCTGAG,1.02
17,AGTAGCTTAC,1.97
18,AGTAGGGG,0.99
19,AGTAGGTAGC,0.984
20,AGTAGGTTG,0.996
21,AGTAGTAGCC,1.02
22,AGTAGTTTAC,0.998
23,AGTATACACT,1.02
24,AGTATACGA,1.01
25,AGTATAGCCT,1.02
26,AGTATATACG,0.927

row,Sequence,switch fluorescence ratio
1,AGTATATCTC,1.04
2,AGTATATTCC,1.11
3,AGTATGCTC,1
4,AGTATGGGTC,1.02
5,AGTATGTAA,1
6,AGTATTACAT,0.991
7,AGTATTGTTA,0.961
8,AGTATTGTTG,0.974
9,AGTATTTATC,0.973
10,AGTCAAATTG,0.979
11,AGTCACTTGC,1.03
12,AGTCATAAAT,0.964
13,AGTCATACAA,1.03
14,AGTCCACTCC,1.1
15,AGTCCATCGT,1.06
16,AGTCCCTGTG,0.991
17,AGTCCGGTAA,1.16
18,AGTCCGGTGT,1.03
19,AGTCCTATGT,1.04
